Drawing on PubChem BioAssay AID463173 (ICCB-Longwood Screening Facility, Harvard Medical School, 2010), this text covers survival for 90 compounds.

Among all 52,000 compounds or so, about 4,300 (8.3%) were called active. Cut-off read from the data, not from the text of the source: active = survival mostly below about 52% (no sharp cut-off); inactive = mostly above about 56%. The list shows a part of the results.

This assay concerns DeltatarO mutant. Nature of the assay: S. aureus survival, RN4220 and DeltatarO strains – OD600, teichoic acid synthesis inhibitors, primary screen (AID 463173). Particulars: S. aureus RN4220 wild type/DeltatarO growth, OD600, 18 h, hits give low values, screened at 18.75 µg/mL (by protocol).
In the case of `CCOc1ccc(NC(=O)Cn2c(=O)n(Cc3ccc(C(=O)NCc4ccc(C)cc4)cc3)c(=O)c3ccccc32)cc1`, the survival was inactive: 75%.
With `COc1cccc(CNC(=O)CN2C(=O)COc3ccc(S(=O)(=O)N4CCCCCC4)cc32)c1` the figure was inactive: 82%; with `CC1CCCCN1Cc1c(O)ccc2c(=O)c(-c3ccccc3)coc12` (stereo not given), inactive: 54%; with `CCOC(=O)C1=C(CN2CCCCC2)NC(=O)NC1c1ccc(C)cc1` (stereo not given), inactive: 85%.
With `COc1cccc(CNS(=O)(=O)c2ccc(N3CCCCS3(=O)=O)cc2)c1` the figure was inactive: 84%.
Next, `Cc1ccc(CNC(=O)c2sc3nc(-c4ccc(F)cc4)ccc3c2N)cc1`: inactive: 131%; `CCOc1ccc(C(CC(=O)Nc2cc(C)c(Cl)cc2OC)N2Cc3ccccc3C2=O)cc1OC` (stereo not given): inactive: 70%.
For the compound `COc1ccc(C(=O)Nc2nnc(S(=O)(=O)N3CCC(C)CC3)s2)cc1OC`, the survival is inactive: 79%.
With `CCN(C(=O)C1CCCN(c2ncnc3onc(-c4ccc(F)cc4)c23)C1)c1ccccc1` (stereo not given) the figure was inactive: 104%.
With `O=C(NC1CCCC1)c1cc(-c2ccccc2)on1` the figure was inactive: 90%; with `CC(=O)N1CCN(c2ccccc2N)CC1`, inactive: 93%; with `O=C(NCC1CCCO1)c1c[nH]c2ccc(S(=O)(=O)Nc3ccc(F)cc3F)cc2c1=O` (stereo not given), inactive: 85%.
Next, `CCOc1ccc(NC(=O)NCCn2nnc3cc(S(=O)(=O)N(C)C)ccc32)cc1`: inactive: 74%; `CC(C)(C)c1ccc(-c2nc(S(=O)(=O)c3ccccc3)c(N3CCOCC3)o2)cc1`: active: 37%.
Take `CCNc1nc(NC(C)C)nc(OCCNC(=O)COc2ccc(Cl)cc2C)n1`: the survival is inactive: 60%.
With `Cc1ccc(N2CC(NC(=O)c3ccco3)CC2=O)cc1C` (stereo not given) the figure was inactive: 101%; with `CC(C)COc1ccc(-c2nonc2NC(=O)c2ccc(F)cc2)cc1`, inactive: 86%.
Next, `O=C(NCCc1ccccc1)c1ccc(CSc2nc3ccncc3n2Cc2ccccc2F)cc1`: inactive: 76%; `CCN(C(=O)c1nn(-c2ccc(C)cc2)c(=O)c2c1c1ccccc1n2C)c1ccc(F)cc1`: inactive: 84%.
With `O=c1[nH]c(CSc2ncc(-c3ccc(F)cc3)n2Cc2ccco2)nc2ccccc12` the figure was inactive: 68%.
`O=C(Nc1nnc(S(=O)(=O)N2CCCC2)s1)c1ccccc1F`: the survival was active: 28%.
With `CCOC(=O)c1cnc2c(C)cc(Cl)cc2c1NCCc1ccc(OC)c(OC)c1` the figure was active: 31%; with `O=C(Cn1ncc2c([nH]c3ccccc32)c1=O)NCc1cccc(Cl)c1`, active: 20%.
Next, `COc1ccc(NC(=O)C(C)n2c(C)c3cnn(-c4ccccc4)c(=O)c3c2C)cc1Cl` (stereo not given): inactive: 81%; `CCOC(=O)c1cc(-c2ccc(F)cc2)n(CCC(=O)NCc2ccccc2OC)c1C`: active: 52%; `O=C(O)c1ccc(-c2nc3ccccc3[nH]2)cc1`: inactive: 86%.
With `COc1ccc(Cn2ccc3nc(C)c(C(=O)NCc4ccc(OC)cc4OC)cc3c2=O)cc1` the figure was active: 25%.
Consider `COC(=O)c1ccccc1NC(=O)CCc1c(C)nc2c(c(C)nn2-c2ccccc2)c1C`, for which the survival was inactive: 101%.
With `COc1ccc(-c2cc(C(=O)N3CCN(c4ccc(F)cc4)CC3)no2)cc1OC` the figure was inactive: 57%; with `O=C(NC12CC3CC(CC(C3)C1)C2)N1CC2Cc3cccc(=O)n3C(C2)C1` (stereo not given), inactive: 88%.
With `COc1ccc(-n2nnc(-c3nc(-c4ccccc4C)no3)c2N)cc1Cl` the figure was inactive: 104%; with `CSc1nc(C)c(Oc2ccccc2)c(=O)n1C`, inactive: 93%; with `COc1ccc(C2CC(=O)c3c([nH]c(C(=O)OC4CCCCCC4)c3C)C2)cc1OC` (stereo not given), inactive: 81%.
Next, `COc1cccc(CNC(=O)CCCn2nc(C)n3c(cc4sccc43)c2=O)c1`: inactive: 75%; `O=C(NCc1ccccc1)C(c1ccco1)N(C(=O)c1csnn1)c1ccccc1` (stereo not given): inactive: 81%.
On to `COC(=O)c1ccc(Cn2nnc3sc4c(c3c2=O)CCCC4)cc1`, for which the survival was inactive: 74%.
Consider `COc1cc2nc(Nc3ccc(F)cc3)nc(N)c2cc1OC`, for which the survival was inactive: 92%.
Next, `CCc1ccccc1OCCSc1nnc(-c2cc(OC)c(OC)c(OC)c2)o1`: inactive: 106%; `CCOC(=O)c1cccc(NC(=O)C(Cc2ccccc2)NS(=O)(=O)c2cccc3nsnc23)c1` (stereo not given): inactive: 73%; `COc1ccc(NC(=O)CN(C)S(=O)(=O)c2cccc3nsnc23)cc1`: inactive: 106%.
With `CC(C)Oc1ccc(CSCCN)cc1` the figure was inactive: 90%.
Consider `Cc1ccc(C)c(Nc2nc3nonc3nc2Nc2cccc(C)c2C)c1`, for which the survival was active: 2%.
Take `COc1ccc(Cl)cc1NC(=O)N1CCC(CN2CCCCCC2)CC1`: the survival was inactive: 79%.
With `Cc1cccc(Cn2cc(C(=O)Nc3ccc(S(N)(=O)=O)cc3)ccc2=O)c1` the figure was inactive: 88%; with `O=C(C1CCN(S(=O)(=O)Cc2ccccc2)CC1)N1CCN(c2ccccc2F)CC1`, inactive: 70%; with `CCc1ccccc1NC(=O)C(C)n1nc(-c2ccc(C)c(C)c2)ccc1=O` (stereo not given), inactive: 54%.
For `CCCCNC(=O)CN1C(=O)COc2ccc(S(=O)(=O)N3CCCC3)cc21`, the survival is inactive: 83%.
As for `COc1ccc(CNC(=O)CN2C(=O)CSc3ccc(S(=O)(=O)N4CCCC4)cc32)cc1`, the survival was inactive: 85%.
As for `CC1=C(C(=O)OCC2CCCCC2)C(c2ccc(Cl)cc2Cl)CC(=O)N1` (stereo not given), the survival is inactive: 82%.
For the compound `CSc1cccc(NC(=O)Cn2cnc(S(=O)(=O)N3CCCC3)c2)c1`, the survival is inactive: 94%.
Next, `O=C(Nc1ccccc1OCc1cc(=O)n2ccccc2n1)c1ccccc1F`: inactive: 83%; `COc1ccc(/C=C/c2nc3ccccc3c(=O)n2-c2cccc(C(F)(F)F)c2)cc1`: inactive: 91%.
With `Cc1[nH]c(=O)[nH]c(=O)c1S(=O)(=O)N1CCN(c2cccc(Cl)c2)CC1` the figure was inactive: 65%.
Next, `Cc1ccc(CN(C(=O)COc2ccc(Cl)cc2Cl)C2CCS(=O)(=O)C2)o1` (stereo not given): inactive: 87%; `C=CCN(CC=C)C(=O)CCN1C(=O)c2ccccc2C1=O`: inactive: 89%.
In the case of `O=S1(=O)CCC(N=Cc2ccc(-c3ccc(Br)cc3)o2)C1` (stereo not given), the survival was inactive: 98%.
Turning to `CCN(CC)c1ccc(NC(=O)c2cc3c(=O)n4cccc(C)c4nc3n2C)c(C)c1`, the survival was inactive: 61%.
Next, `Cc1cc(S(=O)(=O)NCC(c2ccc(N(C)C)cc2)N2CCOCC2)ccc1F` (stereo not given): inactive: 83%.
Next, `O=C(CSC1=Nc2ccccc2N=C(c2ccc(F)cc2)C1)NCc1ccc(Cl)cc1`: inactive: 72%; `CC(=O)c1ccc(NC(=O)c2nc3ccccc3n(C)c2=O)cc1`: inactive: 80%.
With `CCn1nc(C)c2c(-c3ccccc3)cc(=O)n(C(C)C(=O)NCc3ccc(C)cc3)c21` (stereo not given) the figure was inactive: 122%.
In the case of `CCCCCNC(=O)CCn1c(=O)[nH]c2ccccc2c1=O`, the survival was inactive: 125%.
Next, `Cc1c(-c2ccc(Cl)cc2)c(=O)oc2c(CN3CCCC3)c(O)ccc12`: inactive: 77%.
With `COc1ccc(N2CC(NC(=O)c3ccc(OC(C)C)cc3)CC2=O)cc1` (stereo not given) the figure was active: 0%.
With `Nc1ccc2[nH]c(=O)nc(-c3ccccc3)c2c1` the figure was inactive: 101%; with `COc1ccc(-c2nc3sc(CCNS(=O)(=O)c4ccc(F)c(C)c4)c(C)n3n2)cc1`, inactive: 81%.
As to `COc1ccccc1CNC(=O)CN1C(=O)CCn2nc(-c3ccccc3)cc21`, the survival was inactive: 57%.
With `Cc1ccc(OCC(=O)Nc2ccc3nc(Nc4cccc(Cl)c4)cc(C)c3c2)cc1` the figure was inactive: 132%; with `Clc1ccc(CNc2cc(-c3ccccc3)nc3nncn23)cc1`, inactive: 50%.
Next, `CCCNC(=O)Cn1nc(-c2ccc(C)c(C)c2)c2cnc3ccc(F)cc3c21`: inactive: 69%.
Turning to `COc1ccc(S(=O)(=O)Nc2cccc(-c3ccc(N4CCCC4)nn3)c2)cc1OC`, the survival is inactive: 85%.
Consider `O=C(Nc1cccc(C(F)(F)F)c1)Nc1nnc(N2CCCCC2)s1`, for which the survival is inactive: 82%.
Next, `N#Cc1c(Nc2cccc(F)c2)sc(C(=O)c2ccc(Cl)cc2)c1N`: inactive: 79%.
Next, `CCN(c1ccccc1)S(=O)(=O)c1ccc2[nH]cc(C(=O)NCc3ccc(C)cc3)c(=O)c2c1`: inactive: 117%.
With `CCOc1ccc(CCNC(=O)C2CCC(CNS(=O)(=O)c3ccc(Cl)cc3)CC2)cc1OCC` (stereo not given) the figure was inactive: 80%.
Consider `COc1cccc(-n2cc(C(=O)Nc3cc(C)c(Cl)cc3OC)c3ccccc3c2=O)c1`, for which the survival was inactive: 56%.
Next, `Cc1ccccc1C(=O)NN1C(=O)c2ccccc2C1=O`: inactive: 98%.
Next, `CCOc1ccc(CNC(=O)C2CCN(c3nn4c(=O)cc(C)nc4s3)CC2)cc1`: inactive: 85%.
Next, `CCC1(CO)COC(c2ccco2)OC1` (stereo not given): inactive: 65%; `COc1ccc(N(C(=O)COc2ccccc2OC)S(=O)(=O)c2ccc(Cl)cc2)cc1`: inactive: 71%; `COc1nc(OC)nc(N2CCC(C(=O)NC3CCCCCC3)CC2)n1`: inactive: 108%.
Take `CCc1ccccc1NC(=O)Nc1cc(C(=O)NCc2ccc(OC)cc2)ccc1N1CCCC1`: the survival was inactive: 94%.
With `Cc1noc(C)c1S(=O)(=O)N1CCCC(C(=O)Nc2ccc(C(C)C)cc2)C1` (stereo not given) the figure was inactive: 70%; with `O=C(c1ccccc1)n1nc(-c2ccco2)nc1NCc1ccccc1Cl`, inactive: 103%.
Next, `O=C(CS(=O)(=O)c1nc(-c2ccc(Cl)cc2)cn1-c1ccccc1)Nc1ccc(F)cc1F`: active: 50%; `CCn1c(/N=C/c2ccc(OC)cc2O)nc2ccccc21`: inactive: 108%.
Next, `CCc1ccc(C(=O)c2cn(CC(=O)Nc3ccc4c(c3)OCCO4)c3ccc(C)cc3c2=O)cc1`: active: 57%; `CCOC(=O)c1c(C)[nH]c(C)c1S(=O)(=O)NCC(=O)N1CCN(c2cc(Cl)ccc2C)CC1`: inactive: 119%.
As for `O=C(CCSCc1ccccc1Cl)N1CCN(c2ccc(F)cc2)CC1`, the survival was inactive: 66%.
Consider `CC(Oc1ccccc1)C(=O)N1CCN(Cc2cc(=O)n3nc(-c4ccccc4Cl)sc3n2)CC1` (stereo not given), for which the survival was inactive: 85%.
